Test results from PMC11659772.
Results are given in words; binding and its absence hold for the method and conditions named. In cells and extracts the contact can be indirect. Some results given as binding are weak or reduced against the parent protein; the word gives no strength. For some of these results: Sequences can lack the tags named with a protein. Each block holds one molecule with its values, some of them ahead of it.

The chains behind the UniProt entries cited, without tags or fusion partners.
UniProt O43524: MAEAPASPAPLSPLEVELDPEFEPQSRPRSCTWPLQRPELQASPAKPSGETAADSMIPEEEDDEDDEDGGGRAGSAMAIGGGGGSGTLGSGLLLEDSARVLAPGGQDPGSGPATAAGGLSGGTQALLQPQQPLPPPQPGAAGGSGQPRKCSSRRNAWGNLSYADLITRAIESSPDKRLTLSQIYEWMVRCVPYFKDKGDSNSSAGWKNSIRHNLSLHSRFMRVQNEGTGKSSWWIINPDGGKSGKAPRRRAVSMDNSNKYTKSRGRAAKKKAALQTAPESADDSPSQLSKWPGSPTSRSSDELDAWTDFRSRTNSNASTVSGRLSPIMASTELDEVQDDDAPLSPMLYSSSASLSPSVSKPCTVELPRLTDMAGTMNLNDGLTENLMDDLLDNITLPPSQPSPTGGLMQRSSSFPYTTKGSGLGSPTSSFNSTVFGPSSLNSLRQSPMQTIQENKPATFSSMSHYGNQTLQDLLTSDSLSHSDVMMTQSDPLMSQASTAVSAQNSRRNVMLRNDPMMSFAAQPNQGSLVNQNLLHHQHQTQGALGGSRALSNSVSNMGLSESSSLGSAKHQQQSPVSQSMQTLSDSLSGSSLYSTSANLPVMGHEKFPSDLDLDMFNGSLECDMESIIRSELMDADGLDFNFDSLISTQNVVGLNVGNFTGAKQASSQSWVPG
UniProt D3ZBQ1: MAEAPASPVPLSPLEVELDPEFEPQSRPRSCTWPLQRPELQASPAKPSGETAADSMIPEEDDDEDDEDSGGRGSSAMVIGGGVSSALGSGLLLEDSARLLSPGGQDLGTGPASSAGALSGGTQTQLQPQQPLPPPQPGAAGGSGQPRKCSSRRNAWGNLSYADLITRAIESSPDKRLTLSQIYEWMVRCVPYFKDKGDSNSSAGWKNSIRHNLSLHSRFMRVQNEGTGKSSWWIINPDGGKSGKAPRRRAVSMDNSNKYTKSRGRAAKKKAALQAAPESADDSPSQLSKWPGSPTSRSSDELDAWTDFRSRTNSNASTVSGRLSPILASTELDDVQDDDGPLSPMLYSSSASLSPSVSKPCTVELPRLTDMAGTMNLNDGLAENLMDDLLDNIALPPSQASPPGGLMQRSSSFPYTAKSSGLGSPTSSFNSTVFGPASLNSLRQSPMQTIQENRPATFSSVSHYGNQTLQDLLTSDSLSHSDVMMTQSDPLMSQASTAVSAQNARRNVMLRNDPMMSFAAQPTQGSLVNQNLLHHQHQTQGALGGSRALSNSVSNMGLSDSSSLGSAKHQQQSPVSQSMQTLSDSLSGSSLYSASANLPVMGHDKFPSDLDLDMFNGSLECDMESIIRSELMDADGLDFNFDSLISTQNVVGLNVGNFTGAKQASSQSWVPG

Columns and labels:
[1] = target: T1, Flag-tagged EEPD1 (endonuclease/exonuclease/phosphatase family domain-containing 1), full length (UniProt Q7L9B9); test: co-IP; HEK293T cells cotransfected with HA-FOXO3A and Flag-EEPD1; lysate in Pierce IP lysis buffer; anti-Flag Co-IP beads, 4°C, 12 h; washed with PBST; western blot with anti-Flag and anti-HA
T1 sequence: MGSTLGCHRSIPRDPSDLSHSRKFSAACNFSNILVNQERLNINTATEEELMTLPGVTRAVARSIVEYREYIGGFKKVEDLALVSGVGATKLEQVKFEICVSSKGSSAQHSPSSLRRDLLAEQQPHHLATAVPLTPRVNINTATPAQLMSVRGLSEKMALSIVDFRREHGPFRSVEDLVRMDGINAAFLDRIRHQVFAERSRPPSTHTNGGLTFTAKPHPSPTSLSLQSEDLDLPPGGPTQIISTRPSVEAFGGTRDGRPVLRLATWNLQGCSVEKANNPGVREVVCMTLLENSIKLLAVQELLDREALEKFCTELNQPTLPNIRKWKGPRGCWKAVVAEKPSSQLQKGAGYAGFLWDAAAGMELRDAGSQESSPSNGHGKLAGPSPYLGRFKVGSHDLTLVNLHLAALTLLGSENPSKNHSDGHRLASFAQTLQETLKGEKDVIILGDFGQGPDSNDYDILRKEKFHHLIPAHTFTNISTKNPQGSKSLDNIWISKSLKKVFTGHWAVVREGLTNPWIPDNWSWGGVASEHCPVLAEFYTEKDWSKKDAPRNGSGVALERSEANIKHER

[2] = target: HA-tagged FOXO3A (UniProt O43524); test: co-IP; HEK293T cells (the text says HEK293A for the deletion mutants) cotransfected with HA-FOXO3A and Flag-EEPD1 full length or deletion mutants; lysate in Pierce IP lysis buffer; anti-HA Co-IP beads, 4°C, 12 h; washed with PBST; western blot with anti-Flag and anti-HA
[3] = target: FOXO3A, endogenous in neonatal rat cardiomyocytes (rat (endogenous in NRCMs)) (UniProt D3ZBQ1); test: proximity ligation; in situ PLA in fixed, permeabilised neonatal rat cardiomyocytes with anti-FOXO3A and anti-EEPD1 antibodies; confocal microscopy

binding [1]: binds
Molecule: HA-tagged FOXO3A (from UniProt O43524 1-673)

binding [2]: binds
B1: Flag-tagged EEPD1 (endonuclease/exonuclease/phosphatase family domain-containing 1), full length (protein, UniProt Q7L9B9 1-569)
chain: MGSTLGCHRSIPRDPSDLSHSRKFSAACNFSNILVNQERLNINTATEEELMTLPGVTRAVARSIVEYREYIGGFKKVEDLALVSGVGATKLEQVKFEICVSSKGSSAQHSPSSLRRDLLAEQQPHHLATAVPLTPRVNINTATPAQLMSVRGLSEKMALSIVDFRREHGPFRSVEDLVRMDGINAAFLDRIRHQVFAERSRPPSTHTNGGLTFTAKPHPSPTSLSLQSEDLDLPPGGPTQIISTRPSVEAFGGTRDGRPVLRLATWNLQGCSVEKANNPGVREVVCMTLLENSIKLLAVQELLDREALEKFCTELNQPTLPNIRKWKGPRGCWKAVVAEKPSSQLQKGAGYAGFLWDAAAGMELRDAGSQESSPSNGHGKLAGPSPYLGRFKVGSHDLTLVNLHLAALTLLGSENPSKNHSDGHRLASFAQTLQETLKGEKDVIILGDFGQGPDSNDYDILRKEKFHHLIPAHTFTNISTKNPQGSKSLDNIWISKSLKKVFTGHWAVVREGLTNPWIPDNWSWGGVASEHCPVLAEFYTEKDWSKKDAPRNGSGVALERSEANIKHER

binding [2]: binds
B3: Flag-EEPD1 region 3 deletion mutant (domain or fragment, UniProt Q7L9B9 1-544)
chain: MGSTLGCHRSIPRDPSDLSHSRKFSAACNFSNILVNQERLNINTATEEELMTLPGVTRAVARSIVEYREYIGGFKKVEDLALVSGVGATKLEQVKFEICVSSKGSSAQHSPSSLRRDLLAEQQPHHLATAVPLTPRVNINTATPAQLMSVRGLSEKMALSIVDFRREHGPFRSVEDLVRMDGINAAFLDRIRHQVFAERSRPPSTHTNGGLTFTAKPHPSPTSLSLQSEDLDLPPGGPTQIISTRPSVEAFGGTRDGRPVLRLATWNLQGCSVEKANNPGVREVVCMTLLENSIKLLAVQELLDREALEKFCTELNQPTLPNIRKWKGPRGCWKAVVAEKPSSQLQKGAGYAGFLWDAAAGMELRDAGSQESSPSNGHGKLAGPSPYLGRFKVGSHDLTLVNLHLAALTLLGSENPSKNHSDGHRLASFAQTLQETLKGEKDVIILGDFGQGPDSNDYDILRKEKFHHLIPAHTFTNISTKNPQGSKSLDNIWISKSLKKVFTGHWAVVREGLTNPWIPDNWSWGGVASEHCPVLAEFYTEKDW

binding [2]: no binding
B6: Flag-EEPD1 region 2 deletion mutant (protein, UniProt Q7L9B9)
chain: MGSTLGCHRSIPRDPSDLSHSRKFSAACNFSNILVNQERLNINTATEEELMTLPGVTRAVARSIVEYREYIGGFKKVEDLALVSGVGATKLEQVKFEICVSSKGSSAQHSPSSLRRDLLAEQQPHHLATAVPLTPRVNINTATPAQLMSVRGLSEKMALSIVDFRREHGPFRSVEDLVRMDGINAAFLDRIRHQVFAERLQSEDLDLPPGGPTQIISTRPSVEAFGGTRDGRPVLRLATWNLQGCSVEKANNPGVREVVCMTLLENSIKLLAVQELLDREALEKFCTELNQPTLPNIRKWKGPRGCWKAVVAEKPSSQLQKGAGYAGFLWDAAAGMELRDAGSQESSPSNGHGKLAGPSPYLGRFKVGSHDLTLVNLHLAALTLLGSENPSKNHSDGHRLASFAQTLQETLKGEKDVIILGDFGQGPDSNDYDILRKEKFHHLIPAHTFTNISTKNPQGSKSLDNIWISKSLKKVFTGHWAVVREGLTNPWIPDNWSWGGVASEHCPVLAEFYTEKDWSKKDAPRNGSGVALERSEANIKHER

Continued, molecule first:

B2: Flag-EEPD1 region 1 deletion mutant (domain or fragment, UniProt Q7L9B9 21-569)
chain: SRKFSAACNFSNILVNQERLNINTATEEELMTLPGVTRAVARSIVEYREYIGGFKKVEDLALVSGVGATKLEQVKFEICVSSKGSSAQHSPSSLRRDLLAEQQPHHLATAVPLTPRVNINTATPAQLMSVRGLSEKMALSIVDFRREHGPFRSVEDLVRMDGINAAFLDRIRHQVFAERSRPPSTHTNGGLTFTAKPHPSPTSLSLQSEDLDLPPGGPTQIISTRPSVEAFGGTRDGRPVLRLATWNLQGCSVEKANNPGVREVVCMTLLENSIKLLAVQELLDREALEKFCTELNQPTLPNIRKWKGPRGCWKAVVAEKPSSQLQKGAGYAGFLWDAAAGMELRDAGSQESSPSNGHGKLAGPSPYLGRFKVGSHDLTLVNLHLAALTLLGSENPSKNHSDGHRLASFAQTLQETLKGEKDVIILGDFGQGPDSNDYDILRKEKFHHLIPAHTFTNISTKNPQGSKSLDNIWISKSLKKVFTGHWAVVREGLTNPWIPDNWSWGGVASEHCPVLAEFYTEKDWSKKDAPRNGSGVALERSEANIKHER
binding [2]: binds

B4: EEPD1, endogenous in neonatal rat cardiomyocytes (protein, UniProt Q5XI74 1-569)
chain: MGSTLGCHRSIPRDPSDLSHSRKFSAACNFSNILVNQERLNINTATEEELMTLPGVTRAVARSIVEYREYIGGFKKVEDLALVSGVGATKLEQVKFEICVSSKGNSAQHSPSSLRRDLLAEQQPHHLATTVPLTPRVNINTATLAQLMSVRGLSEKMAVSIVDYRREHGPFRSVEDLVRMDGINAAFLDRIRHQVFAERSRPPSTHTNGGLTFTAKPHPSPTSLSLQSEDLDLPPGGPTQIISMRPSVEAFGGMRDGRPVFRLATWNLQGCSVEKANNPGVREVVCMTLLENSIKLLAVQELLDKEALEKFCTELNQPILPNIRKWKGPRGCWRSIVAEKPSSQLQKGPCYSGFLWDTAANVELRDIPGQESSPSNGHAKTVGPSPFLARFKVGSNDLTLVNLQLTALALPGVENSSKNHSDGHRLLNFALTLQETLKGEKDVVILGDFGQGPDSSDYDILRREKFHHLIPAHTFTNISTRNPQGSKSVDNIWISKSLKKVFTGHWAVVREGLTNPWIPDNWSWGGVASEHCPVLAELYMEKDWSKKEVPRNGNGVTLEPSEANVKHER
binding [3]: binds

B5: Flag-EEPD1 HhH domain deletion mutant (protein, UniProt Q7L9B9)
chain: MGSTLGCHRSIPRDPSDLSHSRKFSAACNFSNILVNQREYIGGFKKVEDLALVSGVGATKLEQVKFEICVSSKGSSAQHSPSSLRRDLLAEQQPHHLATAVPLTPRVNINTATPAQLMSVRGLSEKMALSIVDFRREHGPFRSVEDLVRMDGINAAFLDRIRHQVFAERSRPPSTHTNGGLTFTAKPHPSPTSLSLQSEDLDLPPGGPTQIISTRPSVEAFGGTRDGRPVLRLATWNLQGCSVEKANNPGVREVVCMTLLENSIKLLAVQELLDREALEKFCTELNQPTLPNIRKWKGPRGCWKAVVAEKPSSQLQKGAGYAGFLWDAAAGMELRDAGSQESSPSNGHGKLAGPSPYLGRFKVGSHDLTLVNLHLAALTLLGSENPSKNHSDGHRLASFAQTLQETLKGEKDVIILGDFGQGPDSNDYDILRKEKFHHLIPAHTFTNISTKNPQGSKSLDNIWISKSLKKVFTGHWAVVREGLTNPWIPDNWSWGGVASEHCPVLAEFYTEKDWSKKDAPRNGSGVALERSEANIKHER
binding [2]: no binding
